Reference: PMC4242493
Some of the results follow. The list includes weakly bound sequences.

These sequences were tested against MaxL homodimer (UniProt P61244) (assay: universal protein-binding microarray (PBM)). Conditions: PBS-based mixture, 10 nM His-tagged protein dimer, 2% milk, 200 ng/uL BSA, 50 ng/uL salmon testes DNA, 0.02% TX-100; detection with Alexa 488 anti-His …; high values mean tight binding; most listed sequences are background and not binding sites; double strand, one strand shown.
Chain of UniProt P61244 (P61244 whole entry): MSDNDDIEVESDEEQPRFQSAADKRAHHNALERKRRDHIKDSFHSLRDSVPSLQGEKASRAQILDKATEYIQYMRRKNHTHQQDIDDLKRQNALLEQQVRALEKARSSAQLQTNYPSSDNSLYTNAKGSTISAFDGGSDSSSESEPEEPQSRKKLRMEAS

Sequence	binding signal (normalized occupancy)
TACAAATA	0.0817
GCAATGCC	0.0753
AAGGAGTA	0.0736
GTGTTTCA	0.0829
CGCAATCA	0.0744
GTATTACA	0.0849
CAAACAGG	0.0747
AAGAAGAC	0.08
AATGGGGC	0.0733
CTGCGCAC	0.0795
CACGACGA	0.0811
AAAACGCC	0.069
CAGGACCG	0.0711
GCACGCTA	0.101
CGGCCGGA	0.0724
AATCCTCC	0.0749
AGAGGAAA	0.0733
GCAATGAA	0.0729
CAGGCACG	0.076
ATCTAATG	0.082
ACCTTGTC	0.0761
CACGCGGG	0.145
ACTAGAAC	0.0772
GCAGCCTA	0.0708
TGTAGAAA	0.0794

Sequence	binding signal (normalized occupancy)
CAGAACTG	0.0637
CTTCTCTC	0.0719
CCATACAC	0.0849
AGTGCACA	0.0838
CAATACGG	0.0728
GTGCTGGA	0.0813
CCACCTGG	0.105
CTTACCGC	0.0744
CGAAGGCA	0.07
CCCAGGCA	0.0746
CTGTGGTA	0.0785
GAATTAAC	0.075
CAGGTGCA	0.0844
CCTGTAAG	0.0745
TAACTGCA	0.0726
CCGCCACG	0.0847
ACGTATCG	0.0801
GGATGCAA	0.0807
CGTGTGCA	0.0981
ATTGCTTG	0.0731
CCCCGTAC	0.0757
AGTACGCG	0.0818
ATGTCCAG	0.0759
AAGGTATA	0.0782
CAGATCAG	0.0811

Sequence	binding signal (normalized occupancy)
CAATATTG	0.0704
ATTGCGGA	0.0753
CACCTTGG	0.0779
GTCTGTGA	0.0803
AAGGGGGG	0.0707
ATTAATTC	0.0771
CTTTCGGC	0.0737
CGCATGAC	0.105
TCGGCAAA	0.0705
GGTCCGGA	0.0702
ATTTTACG	0.0801
AGGCACTC	0.0717
GCGGACGC	0.0729
CCACGGTC	0.0736
AGTATGAA	0.0778
GGGCTCGA	0.0739
CACCCTAG	0.0781
TACGATGA	0.0751
CGGCCAGC	0.0709
CAATGGGG	0.0767
ATTCGGGG	0.0749
CCCAAGAC	0.0715
GGTTTCCA	0.073
CGACCGGC	0.0683
AACGCTCG	0.0758

Sequence	binding signal (normalized occupancy)
GAATTCAA	0.0719
TAGCTACA	0.0754
AGTTGTAA	0.0725
CCACCACA	0.0826
ACCCTTTG	0.0783
ATTACGGG	0.0754
CGGCCCAC	0.0748
AGTGACCG	0.0736
AACATGTA	0.0923
AGCTCGGC	0.0685
ACTCCCAA	0.0732
ACAACGAT	0.0761
GGGAATGA	0.0828
GACTACGA	0.0681
AGATTACG	0.0787
CTTACACC	0.0763
CGTCACAG	0.0813
AGCCGTGG	0.0713
ATTACCCA	0.0818
CCAAGTAC	0.0755
AAGAGAGA	0.0687
CCTCCCTA	0.0736
GTCACAAC	0.0761
CTCTGGTA	0.0732
AGACCAAG	0.0717

Sequence	binding signal (normalized occupancy)
CATTCGTC	0.0749
AATCCATT	0.0725
CACGGAAA	0.0682
AAGAAGAT	0.0729
GGTGGAAA	0.0745
TAGGATAA	0.0769
CGGGTTAC	0.075
AGGGTACG	0.0744
GCCGCTCC	0.066
AAAACAGC	0.0716
CGGCACTC	0.0701
GAAGTGCA	0.0728
GTTGGAGA	0.0742
GAACCGCC	0.0683
CTGCCCAG	0.0664
GCCCGTCA	0.0701
CTTTCAAA	0.0741
CGACACAC	0.0855
GACAATTA	0.0791
GCCGTCCC	0.069
CGCACAAC	0.0757
CATGTACG	0.0957
GCCGTCGC	0.0689
AGGCGGAA	0.0698
ACATATAT	0.0881

Sequence	binding signal (normalized occupancy)
TAAGCCAA	0.0723
GTGCCTTA	0.0789
AGATGGAT	0.081
CTCCACGA	0.0817
GCACAGAA	0.0697
GGCTGCCA	0.0704
GGATTCCA	0.0852
TGCTTACA	0.0879
GCAACACC	0.0794
ATCAAAGC	0.074
AAGGCCAA	0.0718
CGCTTAGA	0.0747
AAGCCCTC	0.0696
AAGGGTCA	0.0747
AGAGTCAA	0.077
AACCACTA	0.0774
ATTGCGTG	0.0828
CTGAGGAA	0.0723
AAGCGACA	0.0721
ACGGCAGC	0.073
CTGCATAC	0.0825
CAGGCGTA	0.0683
CCGACGTA	0.0679
GACGGAAC	0.0708
GAGGTGGA	0.0765

Sequence	binding signal (normalized occupancy)
AGGTCCTC	0.073
CCTAACCC	0.0784
ATACTTCA	0.0738
AGGGCACC	0.0695
AGTGTTTC	0.0789
AAAACTAT	0.0769
ATAAGTTA	0.0796
CTGTGGGC	0.0715
AAAGGCAC	0.0777
GTTTGCCA	0.0789
AACGTGTG	0.108
ACCCTTTC	0.0794
CTAATCAC	0.0815
TCCATCAA	0.0818
AGGCCGAC	0.0677
AAATTTGC	0.0681
CTCTTTGA	0.0683
CCCAAAGG	0.0621
ACTGCTTC	0.0747
GGAGCATA	0.0843
AGCCGTAC	0.0707
AGAGGGAG	0.0733
